# Measurements taken from the antibiotic and cytotoxicity screens of Wong et al. (2023).
# Some of the results follow.
# Test system: HSkMC (human skeletal muscle cells)
# Test: cytotoxicity call (relative viability < 0.9)
# Conditions: 10 µM
row,Compound,cytotoxicity call
1,COc1cccc(CN(C)C[C@@H]2OCc3ccccc3-c3c(n(C)c4ccccc34)C(=O)N([C@H](C)CO)C[C@H]2C)c1,inactive
2,Cc1cc2nc3c(=O)[nH]c(=O)nc-3n(C[C@@H](O)[C@@H](O)[C@@H](O)CO)c2cc1C,inactive
3,COc1ccc(NC(=O)N2C[C@H](O)COC[C@@H]3O[C@H](CC(=O)NC4Cc5ccccc5C4)CC[C@H]32)cc1,inactive
4,C[C@@H]1CN([C@H](C)CO)C(=O)c2cc(NC(=O)Nc3ccc(C(F)(F)F)cc3)ccc2O[C@H]1CN(C)C(=O)Nc1ccc2c(c1)OCO2,inactive
5,C[C@H]1CN([C@@H](C)CO)C(=O)Cc2cc(NC(=O)Nc3cccc4ccccc34)ccc2O[C@H]1CN(C)Cc1ccc2c(c1)OCO2,inactive
6,C=c1ccccc1=C1NN=C(CN2CCCC2)O1,inactive
7,C[C@H]1CN([C@@H](C)CO)C(=O)c2cc(NS(=O)(=O)c3ccc(Cl)cc3)ccc2O[C@H]1CN(C)Cc1ccc(C(=O)Nc2ccccc2N)cc1,inactive
8,COc1ccc(S(=O)(=O)Nc2ccc3c(c2)C(=O)N([C@H](C)CO)C[C@H](C)[C@H](CN(C)C(=O)Nc2c(C)noc2C)OCCCC[C@@H](C)O3)cc1,inactive
9,O=S1(=O)[C@@H]2C[C@H]3C=CC2(CN1C1CC1)O3,inactive
10,Cc1ccc(N2CC[C@@H](CN)C2)cc1,inactive
11,Cc1ccc(S(=O)(=O)Nc2ccc3c(c2)C(=O)N([C@H](C)CO)C[C@H](C)[C@@H](CN(C)S(=O)(=O)c2ccc(F)cc2)OCCCC[C@H](C)O3)cc1,active
12,Cc1noc(C)c1NC(=O)N(C)C[C@H]1Oc2ccc(NC(=O)C3CC3)cc2C(=O)N([C@H](C)CO)C[C@@H]1C,inactive
13,C[C@H](CO)N1C[C@H](C)[C@H](CN(C)C(=O)Nc2cccc3ccccc23)Oc2ncc(-c3cc4ccccc4o3)cc2C1=O,inactive
14,O=C(CCCCCCC(=O)Nc1ccccc1O)N/N=C/[C@H](O)[C@@H](O)[C@H](O)CO,inactive
15,CCC(=O)Nc1ccc2ccccc2c1,inactive
16,COc1ccc(NC(=O)N(C)C[C@@H]2OCCCC[C@H](C)Oc3ccc(NS(=O)(=O)c4ccc(OC)cc4)cc3C(=O)N([C@H](C)CO)C[C@@H]2C)cc1,inactive
17,C[C@@H]1CCCCO[C@@H](CN(C)Cc2ccc(Cl)c(Cl)c2)[C@@H](C)CN([C@H](C)CO)C(=O)c2cc(NC(=O)Nc3ccc(C(F)(F)F)cc3)ccc2O1,inactive
18,C[C@@H]1CN([C@@H](C)CO)C(=O)c2cc(NC(=O)CCCCCC(=O)Nc3ccccc3N)ccc2O[C@@H](C)CCCCO[C@@H]1CN(C)CC1CCCCC1,inactive
19,Cc1ccc(S(=O)(=O)N(C)C[C@@H]2OCCCC[C@H](C)Oc3ccc(NC(=O)Nc4cccc5ccccc45)cc3C(=O)N([C@H](C)CO)C[C@@H]2C)cc1,inactive
20,C[C@@H]1CCCCO[C@@H](CN(C)CC2CC2)[C@@H](C)CN([C@H](C)CO)C(=O)c2cc(NC(=O)CCC(F)(F)F)ccc2O1,inactive

row,Compound,cytotoxicity call
1,C[C@H]1CCCCO[C@H](CN(C)Cc2ccc(Cl)c(Cl)c2)[C@@H](C)CN([C@@H](C)CO)C(=O)c2cc(NC(=O)Nc3ccccc3)ccc2O1,inactive
2,Cc1noc(C)c1NC(=O)N(C)C[C@@H]1Oc2ccc(NC(=O)c3ccncc3)cc2C(=O)N([C@H](C)CO)C[C@H]1C,inactive
3,CC(C)NC(=O)N(C)C[C@@H]1OCc2cnnn2CCCC(=O)N([C@H](C)CO)C[C@@H]1C,inactive
4,NC(=O)[C@H]1C[C@@H]2C=C[C@H]1C2,inactive
5,C[C@H]1CN([C@@H](C)CO)C(=O)c2cc(NS(=O)(=O)c3ccccc3)ccc2O[C@@H]1CN(C)C(=O)Nc1cccc2ccccc12,inactive
6,c1ccc2c(-c3cn[nH]c3)ccnc2c1,inactive
7,C[C@@H]1CN([C@@H](C)CO)C(=O)c2cc(NC(=O)Cn3cnnn3)ccc2O[C@H]1CN(C)Cc1ccc2c(c1)OCO2,inactive
8,Cc1cccc(NC(=O)Nc2ccc3c(c2)C(=O)N(C)[C@H]2CC[C@H](CC(=O)NCc4ccccc4Cl)O[C@H]2CO3)c1,inactive
9,CN1CCN2c3ccccc3Cc3ccccc3C2C1.Cl (stereo not given),inactive
10,COc1ccc([C@@H](N)c2ccccc2)cc1,inactive
11,C[C@H](CO)N1C[C@H](C)[C@H](CN(C)Cc2ccc(C(F)(F)F)cc2)Oc2ccc(NC(=O)Nc3ccccc3)cc2CC1=O,active
12,COc1ccc(NC(=O)Nc2ccc3c(c2)C(=O)N([C@H](C)CO)C[C@H](C)[C@H](CN(C)S(=O)(=O)c2ccc(OC)cc2)OCCCC[C@@H](C)O3)cc1,inactive
13,C[C@@H]1CN([C@H](C)CO)C(=O)Cc2cc(NC(=O)Cn3cnnn3)ccc2O[C@H]1CN(C)Cc1ccccc1,inactive
14,C[C@@H]1CCCCO[C@H](CN(C)C(=O)Nc2ccc(C(F)(F)F)cc2)[C@@H](C)CN([C@@H](C)CO)C(=O)c2cc(NC(=O)Nc3ccc(C(F)(F)F)cc3)ccc2O1,inactive
15,Cc1noc(C)c1NC(=O)Nc1ccc2c(c1)C(=O)N([C@H](C)CO)C[C@@H](C)[C@H](CN(C)S(=O)(=O)c1ccc(F)cc1)OCCCC[C@@H](C)O2,inactive
16,C=CC[C@H](CC(=O)N(CCO)Cc1ccccc1)C(=O)N[C@H](COC(=O)[C@@H](CC=C)Cc1ccc(F)cc1)Cc1c[nH]c2ccccc12,inactive
17,CCn1c(Cl)nc2c1c(=O)n(C)c(=O)n2C,inactive
18,O=C1CCC(=O)NCC/C=C/CCN1,inactive
19,Cc1noc(C)c1S(=O)(=O)N(C)C[C@@H]1Oc2ccc(NS(=O)(=O)c3cn(C)cn3)cc2CC(=O)N([C@H](C)CO)C[C@@H]1C,inactive
20,CCCCNc1ccc(C(=O)OCCOCCOCCOCCOCCOCCOCCOCCOCCOC)cc1,inactive
